# Source: the supplement of paper PMC3724861
# This is one part of the list.
# Test system: T1, Caupolican (Caup) homeodomain DNA-binding domain
# T1 sequence: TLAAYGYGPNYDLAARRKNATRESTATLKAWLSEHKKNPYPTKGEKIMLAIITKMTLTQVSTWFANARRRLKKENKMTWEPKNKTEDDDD
# Experiment: PBM E-score (8-mer, recovered from the published 9-mer minima) (E-score (dimensionless, -0.5 to 0.5)); Drosophila protein; higher = stronger relative binding preference, active = 0.31 or more
# Experimental: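 Protein binding microarray (PBM): in vitro transcribed/translated Caupolican (Caup) homeodomain DNA-binding domain (residues 214-303) applied at 100 nM to a universal 8-mer PBM array (Agilent AMADID 015681). The 8-mer enrichment score (E-score, range -0.5 to 0.5) was computed, and each 9-mer score is the minimum E-score of its two constituent 8-mers. The E-score is the same for a 9-mer and its reverse complement; 0.31 is the stated binding threshold.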
row,Sequence,PBM E-score
1,GCTCTTCA,inactive: -0.15
2,CTTTAAAC,inactive: 0.0573
3,CGGATGAA,inactive: 0.0486
4,CATACTCA,inactive: 0.175
5,GACTGCGC,inactive: -0.165
6,AGTCGGGA,inactive: -0.162
7,AACCCGGC,inactive: -0.182
8,CACAATGA,inactive: 0.116
9,CAAAATTG,inactive: 0.122
10,CCCTCTAG,inactive: -0.126
11,ATGTAGAG,inactive: 0.128
12,ATCCATCG,inactive: 0.0217
13,GATAACGA,≥ 0.175
14,GACTCGCA,inactive: -0.115
15,AGTCTGCA,inactive: -0.0743
16,ATCATATG,inactive: 0.233
17,AAGTCTGG,inactive: -0.0338
18,CAGCAGCA,inactive: 0.00905
19,AATCGGTC,inactive: -0.0649
20,CGAGGGAG,inactive: -0.158
21,CACAGTAG,inactive: 0.0522
22,CCATCTTA,inactive: -0.0877
23,GTACAGAC,inactive: 0.241
24,ACTAGTTG,inactive: 0.203
25,ATGCTGCG,inactive: -0.0674
26,AATGGCGG,inactive: -0.225

row,Sequence,PBM E-score
1,CTCAAACC,inactive: -0.0882
2,CCGATACA,inactive: 0.118
3,CCCTCTGC,inactive: -0.317
4,ATAGTGCG,inactive: -0.048
5,AACACGGA,inactive: 0.31
6,CATCTACC,inactive: 0.00101
7,AGGTATGC,inactive: 0.108
8,AAGGGCGC,inactive: -0.172
9,CCGGCCAC,inactive: -0.244
10,ACTAAGTA,inactive: 0.14
11,CAGCGTTA,inactive: -0.0155
12,GACAGGTC,inactive: 0.098
13,CGGACTTA,inactive: -0.075
14,AGGACATG,active: 0.38
15,TCGAGCAA,≥ 0.0393
16,TCGGAGAA,inactive: -0.155
17,ACTGGGGC,inactive: -0.173
18,CGACGAGC,inactive: -0.0955
19,CCTTAAGC,inactive: -0.204
20,CGTTAGTA,inactive: 0.101
21,GATAACCA,inactive: 0.122
22,CGGTCTAC,inactive: -0.0498
23,AACAATCG,inactive: 0.191
24,GGCTGACC,inactive: -0.0683
25,ATAGGCGA,inactive: -0.0622
26,AGACCTAG,inactive: -0.177

row,Sequence,PBM E-score
1,AGTCGGGG,inactive: -0.204
2,CAATCCTA,inactive: -0.065
3,CGTCCGAG,inactive: -0.108
4,AACTAGTG,inactive: 0.084
5,CACTGCTA,inactive: 0.075
6,ACGCGGGG,inactive: -0.14
7,ACAGTAAC,inactive: 0.157
8,GGCACGCA,inactive: -0.188
9,CCCCTAGC,inactive: -0.264
10,CTTCTTGA,inactive: -0.0627
11,CTTTACAA,inactive: 0.137
12,AGATCCCA,inactive: -0.0747
13,AGACGCTC,inactive: -0.135
14,CTATCACC,inactive: -0.0824
15,CTTGTCTA,inactive: 0.281
16,AACGAACG,inactive: -0.0492
17,AAGGCTCC,inactive: -0.229
18,CCGACCCC,inactive: -0.288
19,TATGTCGA,active: 0.323
20,CTCGTTAC,inactive: 0.147
21,CTCTGCGA,inactive: -0.00912
22,AAATACGT,inactive: 0.0315
23,GGAGTCAA,inactive: -0.113
24,AGATTGTC,inactive: 0.112
25,GTTAACGA,inactive: 0.142
26,CAGCTGGA,inactive: -0.0345

row,Sequence,PBM E-score
1,ACTGGACG,inactive: -0.091
2,GCACTAAA,inactive: -0.0651
3,GGCGAATA,inactive: -0.0493
4,ACCAGAGA,inactive: 0.0483
5,AGAACTTC,inactive: -0.0946
6,AGTATTAT,inactive: 0.209
7,AACTATGG,inactive: 0.052
8,GCTAGGCC,inactive: -0.238
9,AACTAGGA,≥ 0.133
10,CCCACCCA,inactive: -0.0835
11,GAAGATAC,inactive: -0.0179
12,TAATGTCA,inactive: 0.258
13,CTATTTGA,inactive: 0.0537
14,AGGACAGG,inactive: -0.0166
15,CCTGACGC,inactive: -0.219
16,AAAGGTTG,inactive: -0.00255
17,CAAAAATG,inactive: 0.126
18,CAGGCCAA,inactive: -0.133
19,ATCTCAAC,inactive: 0.133
20,ACAGGGTG,inactive: 0.0134
21,CCCTATTA,inactive: 0.029
22,AGAGCGCG,inactive: -0.221
23,AATGACCC,inactive: 0.00407
24,GAATCAGC,inactive: -0.05
25,ATATTGGG,inactive: 0.0383
26,CCAAAGCG,inactive: -0.188

row,Sequence,PBM E-score
1,CATGTCAA,active: 0.422
2,AGTTAACT,inactive: 0.102
3,TATCATCA,inactive: 0.14
4,CCCCTATA,inactive: -0.168
5,AATACGCG,inactive: 0.0251
6,AATGTCGG,inactive: 0.119
7,CATCGAAA,inactive: -0.047
8,ACTCGATA,inactive: 0.124
9,ACAGAGCC,inactive: -0.0639
10,CCGTGTCG,inactive: 0.233
11,ATCACGGA,inactive: 0.0485
12,GGCGTTAA,inactive: -0.0388
13,ACAGCGGT,inactive: 0.0217
14,GTCAACTA,inactive: 0.107
15,CACGTTAG,inactive: 0.0188
16,CTACGTCA,inactive: -0.0249
17,ACGAGTCT,inactive: 0.0486
18,CTGGCAGA,inactive: -0.105
19,CACCAATC,inactive: -0.0309
20,CGGGATAG,inactive: -0.065
21,AGGGCTTG,inactive: -0.0579
22,CAAGCTAC,inactive: 0.0871
23,CTACGGAG,inactive: -0.111
24,GCCAGACC,inactive: -0.268
25,ATGAAGGG,inactive: -0.101
26,TGAATAAA,inactive: 0.122

row,Sequence,PBM E-score
1,GACAGTAA,inactive: 0.0594
2,CGTTGGGA,inactive: -0.0582
3,ATCGTTTA,inactive: 0.13
4,AGCTGGAG,inactive: -0.161
5,ATGCGCCC,inactive: -0.113
6,ACAACGAA,inactive: 0.187
7,ACAATTCC,inactive: 0.106
8,CGACCACA,inactive: 0.0304
9,AGCAGCAG,inactive: -0.0168
10,GACGCGCC,inactive: -0.192
11,ACTCGCGA,≥ -0.00136
12,GCCCAGGC,inactive: -0.306
13,ACTGCAAT,inactive: 0.0371
14,ACCACTGG,inactive: 0.0546
15,CGCCGAAG,inactive: -0.188
16,CCCCCTGA,inactive: -0.229
17,ACGAGCAA,inactive: 0.112
18,CCTTATCC,inactive: -0.195
19,AACATAAT,active: ≥ 0.327
20,ATTATGGC,inactive: 0.00576
21,GTGGTATA,≥ 0.178
22,CAAAATGA,inactive: 0.0481
23,ATCTGTTA,inactive: 0.179
24,CGATCCCA,inactive: -0.12
25,AAGAAACT,inactive: 0.0222
26,AGGGGGCA,≥ -0.238

row,Sequence,PBM E-score
1,ACCATGAG,inactive: -0.118
2,CTATCGTA,inactive: 0.187
3,AGATCCTC,inactive: -0.0474
4,CAATTTTC,inactive: 0.0183
5,ACACCACG,inactive: 0.085
6,CAATGAAC,inactive: 0.0723
7,AGAGAGCC,inactive: -0.211
8,TAACCTGA,inactive: 0.065
9,AGCATCTG,inactive: 0.00631
10,ATGTTTTA,active: 0.369
11,GTTGCGGA,inactive: -0.0563
12,CAGTAACA,inactive: 0.23
13,CCAAGCCC,inactive: -0.123
14,ACGGACGA,≥ 0.0284
15,TTGATCAA,inactive: 0.115
16,CCTTACAG,inactive: -0.0132
17,CCGCAGTC,inactive: -0.104
18,AGCTCTCC,inactive: -0.149
19,CTTTTATA,inactive: -0.0123
20,TACAACCA,inactive: 0.308
21,ACGAATCC,inactive: 0.0795
22,CTAACGCC,inactive: -0.118
23,ACCAGGCA,inactive: -0.002
24,AAATTGGG,inactive: -0.0398
25,AGAGGGCC,inactive: -0.297
26,ATTCTACA,≥ 0.298

row,Sequence,PBM E-score
1,TACTTAGA,inactive: 0.0139
2,ACATTGGG,inactive: 0.0631
3,ATCAGTGG,inactive: 0.0687
4,GTGGGATA,inactive: -0.0102
5,CCATGAGA,inactive: -0.061
6,GCTATGTA,inactive: 0.271
7,AGGGTTAT,≥ 0.0931
8,AGCCTGTC,inactive: -0.0495
9,CAAAATGC,inactive: 0.0504
10,AGTGCACA,inactive: 0.0472
11,AATATGGC,inactive: 0.115
12,CGATACGC,inactive: -0.0266
13,CCTCGATC,inactive: -0.13
14,ATAGGGCC,inactive: -0.127
15,TCCTAGAA,inactive: -0.0532
16,CCGAGTTC,inactive: -0.0561
17,TCCGGGCA,≥ -0.145
18,ACGTGCTG,inactive: 0.0361
19,AAGCGCGC,inactive: -0.139
20,GAAACCAA,inactive: 0.0894
21,ACCCGTCC,inactive: -0.206
22,GAGGAGAC,inactive: -0.136
23,AGTGTTCA,inactive: 0.198
24,CTGTGCCC,inactive: -0.154
25,AAACGTTT,inactive: 0.072
26,CTGCACGA,inactive: -0.01

row,Sequence,PBM E-score
1,ACCGATCC,inactive: -0.0859
2,AGCTCGTG,inactive: 0.0341
3,GCCTCCAC,inactive: -0.223
4,CATACCGC,inactive: -0.0667
5,CCTTTAGC,inactive: -0.0323
6,CGAGCCTA,inactive: -0.0252
7,AAGAGTTA,≥ 0.0747
8,AATGGGCG,inactive: -0.00794
9,GCATATGA,inactive: 0.0647
10,AAACAGTA,≥ 0.225
11,GACACAAC,inactive: 0.216
12,CCACGGTA,inactive: -0.0587
13,ACGCGCTG,inactive: -0.164
14,TGGGGGAA,inactive: -0.237
15,AATGGGGA,inactive: -0.0547
16,GTCACCAA,inactive: 0.0824
17,CAGCGAGC,inactive: -0.104
18,AGGAGAGG,inactive: -0.164
